Results from PubChem BioAssay AID1745853 (National Center for Advancing Translational Sciences (NCATS), 2022).
This is one part of the list. Shown are side measurements of this screen, not its main read-out; they come without a call.

Experiments:
Assay in all cases: Primary Screen for Target Class Profiling of Small Molecule Inhibitors of Methyltransferases
[1] = molecular target: Glycine N-methyltransferase (Homo sapiens) (UniProt Q14749); conditions: purified enzyme, MTase-Glo SAH luminescence; measured here: GNMT inhibition; at 40 µM; stronger effect = lower value
How it was run: (§1)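 Each enzyme was reacted with SAM and its substrate, with compounds tested once at 40 uM; SAH formed was read by MTase-Glo luminescence.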

[2] = molecular target: Guanidinoacetate N-methyltransferase (Homo sapiens) (UniProt Q14353); conditions: purified enzyme, MTase-Glo SAH luminescence; measured here: GAMT inhibition; at 40 µM; stronger effect = lower value
How it was run: as §1

[3] = molecular target: Histamine N-methyltransferase (Homo sapiens) (UniProt P50135); conditions: purified enzyme, MTase-Glo SAH luminescence; measured here: HNMT inhibition; at 40 µM; stronger effect = lower value
How it was run: as §1

[4] = molecular target: Nicotinamide N-methyltransferase (Homo sapiens) (UniProt P40261); conditions: purified enzyme, MTase-Glo SAH luminescence; measured here: NNMT inhibition; at 40 µM; stronger effect = lower value
How it was run: as §1

[5] = molecular target: Phenylethanolamine N-methyltransferase (Homo sapiens) (UniProt P11086); conditions: purified enzyme, MTase-Glo SAH luminescence; measured here: PNMT inhibition; at 40 µM; stronger effect = lower value
How it was run: as §1
On the % scale 0 is the no-effect control and ±100 the full control effect.

SMILES | activity change, negative = inhibition [1] [%] | activity change, negative = inhibition [2] [%] | activity change, negative = inhibition [3] [%] | activity change, negative = inhibition [4] [%] | activity change, negative = inhibition [5] [%]
Cc1cccc(C(C)C)c1NC(=O)Cn1c(=O)oc2cc(S(=O)(=O)N3CCCC3)ccc21 | -2.75 | 4.36 | -1.96 | 1.48 | -4.54
COc1c2c(c(C)c3c1C(=O)OC3)OC1(C)CC(O)C3(O)C(C)(C)OC(=O)CCC3(C)C1C2 (stereo not drawn) | 0.113 | 5.95 | 9.13 | -6.67 | 5.26
O=C(NCCC1CCN(S(=O)(=O)c2ccccc2)CC1)NCc1ccco1 | 3.45 | 1.43 | 1.07 | 0.34 | 4.23
Cc1cccc(OCC(=O)Nc2ccc3c(c2)C(=O)N(C)C2=NCCN23)c1 | 3.67 | 0 | 9.97 | 6.88 | 6.3
CC1(C(=O)NC2CCCCCC2)Cn2c(cc3sccc32)C(=O)N1c1cccc(Cl)c1 (stereo not drawn) | -0.701 | 3.27 | -2.91 | -1.32 | -4.31
CCCn1c(=O)c2cc(F)ccc2n2c(SCC(=O)NC3CCCC3)nnc12 | -2.74 | 0 | 3.42 | 4.89 | 3.53
Cc1ccc(C)c(N2CCN(S(=O)(=O)c3cc4c(cc3C)n(C)c(=O)n4C)CC2)c1 | -1.69 | 4.97 | -5.14 | -7.43 | -0.614
O=C(c1ccccn1)N1CCC2(CC(c3cccc(C(F)(F)F)c3)=NO2)C1 (stereo not drawn) | 0.934 | 1.97 | 1.34 | -1.06 | 13.2
Cc1cccc(CNC(=O)c2cc3n(n2)CC(C)(C(=O)NCc2ccccc2)N(C)C3=O)c1 (stereo not drawn) | 4.09 | 0 | -0.239 | -0.328 | -3.44
COc1ccccc1CNC(=O)C1(C)Cn2c(cc3ccccc32)C(=O)N1CCCc1ccccc1 (stereo not drawn) | -7.17 | -0.388 | -1.76 | -12.9 | -4.47
CN1C(=O)c2cc(C(=O)NCCCN3CCCC3=O)nn2CC1(C)C(=O)NC1CCCCCC1 (stereo not drawn) | 3.36 | 1.76 | 4.74 | 1.18 | 0.595
Cn1nccc1C(O)c1cc2n(n1)CCN(CC(=O)NCc1ccco1)C2 (stereo not drawn) | -4.05 | -8.64 | -1.89 | -11.4 | -8.34
CNC(=O)N1CCC(C2CCN(Cc3ccc(Br)o3)C2)CC1 (stereo not drawn) | -4.29 | -8.68 | -38.2 | -12.6 | -12.6
Cc1ccccc1CN1C(=O)c2cc3occc3n2CC1(C)C(=O)NC1CCCCCCC1 (stereo not drawn) | -5.94 | 3.5 | -2.49 | -5.86 | -5.46
Cc1ccc2[nH]c(CCC(=O)N3CC[C@H](CO)[C@H](O)C3)nc2c1C | -1.62 | -3.03 | 1.59 | -6.57 | -5.46
CCOC(=O)c1cc2n(n1)CC(C)(C(=O)NC1CCCCCC1)N(Cc1ccc(F)cc1)C2=O (stereo not drawn) | 8.04 | 3.01 | 7.9 | 1.45 | 7.36
O=C(Nc1nn(-c2cccc(F)c2)c2cccc(N3CCOCC3)c12)C1CCC1 | -8.53 | -2.47 | -6.91 | -11 | -3.58
CCC(C)NC(=O)c1ccc2c(=O)n(C)c3nn(CC(=O)Nc4ccccc4)c(=O)n3c2c1 (stereo not drawn) | 3.67 | 0.214 | 3.17 | 1.32 | 3.68
COc1cccc(CCN(Cc2cccc(C)c2)C(=O)[C@H]2CCC[C@H](O)C2)c1 | -6.83 | -7.94 | -4.37 | -15 | -7.29
CCCC1c2ccc(C)n2CCN1C(=O)Nc1ccc(C)c(C)c1 (stereo not drawn) | -3.63 | 0.602 | -2.29 | 6.12 | -3.75
Cc1cc2c(c(=O)[nH]1)OC(C(O)CC(C)C)O2 (stereo not drawn) | -3.16 | -6.06 | 4.78 | -18.9 | -20
C[C@@H](NC(=O)[C@H](O)c1cc(F)cc(F)c1)C(=O)N[C@@H]1C(=O)N(C)c2ccccc2-c2ccccc21 | -9.32 | -5.05 | -1.14 | -31.7 | -6.82
COc1cccc(Cn2nc3n(CC(C)C)c(=O)c4ccccc4n3c2=O)c1 | -5.59 | 0 | 1.38 | -3.17 | -1.45
CCN1CCCN(S(=O)(=O)c2cccs2)CC12CCOCC2 | -5.77 | -6.24 | -2.28 | -9.74 | 7.71
CCCN1C(=O)c2c(C(=O)NCCc3ccccc3Cl)ncn2CC1(C)C(=O)NC1CCCC1 (stereo not drawn) | -0.888 | 0.767 | 7.01 | 3.19 | 9.57
COc1ccc(NC(=O)N2CC(N(C3CCOCC3)S(C)(=O)=O)C2)cc1F | -2.74 | -4.59 | -0.784 | -5.03 | -5.53
CCCn1c(=O)c2cc(Cl)ccc2n2c(SCC(=O)Nc3ccccc3OC)nnc12 | -7.5 | -11.5 | 8.16 | -14.1 | -5.91
Cc1cc(C)n(CCc2nc3c4ccccc4nc(N4CCN(c5cccc(C)c5C)CC4)n3n2)n1 | – | 5.62 | – | -3.89 | 7.33
CCOC(=O)c1cc2n(n1)CC(C)(C(=O)NC1CCCC1)N(Cc1cccc(F)c1)C2=O (stereo not drawn) | 2.89 | -0.252 | 8.92 | -0.118 | 1.75
COCC1CN(Cc2ccc(Br)s2)CC12CCNCC2 (stereo not drawn) | -4.38 | -3.05 | -11 | -1.54 | 6.67
